91 compounds from PubChem BioAssay AID360 (National Center for Advancing Translational Sciences (NCATS), 2006) can be followed below.

Each structure is given as a SMILES string. About 550 (1.1%) of roughly 48,000 compounds were called active. Another 4% or so got no clear call; they are omitted. No stated cut-off is given here; in the data, active means potency below about 15 µM; inconclusive means mostly about 16 µM to 33 µM; inactive means weaker than that. Some of the results follow.
Potency means the concentration at half of the fitted maximal effect.

The test deals with Lysosomal acid glucosylceramidase (Homo sapiens) (UniProt P04062). The experiment in a line: Glucocerebrosidase.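 Further: the screen sought inhibitors.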 The note with it: purified enzyme, resorufin glucoside fluorescence (screen aimed at inhibitors), 20 min. The gist of the method: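 Compounds titrated against 0.2 nM normal enzyme, 30 uM resorufin beta-D-glucopyranoside substrate, citrate/phosphate buffer with taurocholate and tween-20, pH 5.9. Reaction ran 20 min at room temperature; fluorescence (Ex 548/Em 600) gave AC50.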
Chain of UniProt P04062 (P04062 whole entry, looked up): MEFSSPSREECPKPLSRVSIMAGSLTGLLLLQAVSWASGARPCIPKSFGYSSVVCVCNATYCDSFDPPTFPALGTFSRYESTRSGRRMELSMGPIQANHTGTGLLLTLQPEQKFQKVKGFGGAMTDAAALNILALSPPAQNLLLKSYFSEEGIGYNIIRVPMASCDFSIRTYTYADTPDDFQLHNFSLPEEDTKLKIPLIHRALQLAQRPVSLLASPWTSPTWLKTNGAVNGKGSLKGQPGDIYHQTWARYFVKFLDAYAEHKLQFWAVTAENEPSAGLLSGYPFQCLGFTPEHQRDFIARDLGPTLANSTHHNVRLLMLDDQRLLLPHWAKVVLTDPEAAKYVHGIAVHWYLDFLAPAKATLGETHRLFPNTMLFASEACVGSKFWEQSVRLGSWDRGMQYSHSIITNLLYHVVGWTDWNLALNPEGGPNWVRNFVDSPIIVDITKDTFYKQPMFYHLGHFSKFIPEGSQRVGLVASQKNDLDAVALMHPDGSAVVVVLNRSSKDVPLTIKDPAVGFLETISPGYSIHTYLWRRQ
On to `O=C(CCC(=O)c1cccs1)OCC(=O)c1ccc(Cl)s1`, for which the Potency was inactive: > 76.9 µM. Under `Cc1nn(C(C)C(=O)O)c2ccccc12` (stereo unspecified) stands inactive: > 76.9 µM; under `CCCc1[nH][nH]c(=O)c1C(c1ccccc1)C(C#N)C#N` (stereo unspecified), inactive: > 76.9 µM.

In the case of `COc1ccc(-c2cc(C(=O)N3CCN(c4ccccn4)CC3)c3ccccc3n2)cc1`, the Potency is inactive: > 76.9 µM. On to `COc1ccc(N2C(=O)C3CCCN3C2c2cccc(F)c2)cc1Cl` (stereo unspecified), for which the Potency is inactive: > 76.9 µM. As for `Cc1ccc(N2CC(C)Cn3c2nc2c3c(=O)n(CC(=O)OCc3ccccc3)c(=O)n2C)cc1C` (stereo unspecified), the figure is inactive: > 76.9 µM. Under `O=C1NCCCCC1NC1CC(=O)N(c2ccccc2)C1=O` (stereo unspecified) stands inactive: > 76.9 µM; under `COCC(=O)NCCNc1nc2ccc(C)cc2cc1C`, active: 2.75 µM. Under `CCOC(=O)COc1nc(C)c(Br)c(OC)n1` stands inactive: > 76.9 µM; under `CCCCCN(C(=O)NC(=O)Nc1ccccc1C)S(C)(=O)=O`, inactive: > 76.9 µM.

With `Nc1nncn1C(=O)c1c(Cl)cccc1Cl`, the Potency is inactive: > 76.9 µM. Turning to `CCOc1ccc2[nH]c(S(=O)(=O)CC)nc2c1Cl`, the Potency is inactive: > 76.9 µM. As to `CCC(Sc1nncn1C)C(=O)Nc1ccccc1OC` (stereo unspecified), the Potency was inactive: > 76.9 µM. Under `COc1ccc(C)cc1-n1nnnc1SC/C(O)=C(\C#N)c1nc2ccccc2[nH]1` stands inactive: > 76.9 µM. On to `COc1ccc(CCNc2oc(COc3ccccc3F)nc2C#N)cc1OC`, for which the Potency is inactive: > 76.9 µM. With `CC(=O)NC(Cc1ccccc1)C(=O)NC1CCN(C(=O)NC2CCCCC2)CC1` (stereo unspecified), the Potency is inactive: > 76.9 µM. Under `CC(=O)N1CCN(c2ccc(S(=O)(=O)N3CCCCC3)cn2)CC1` stands inactive: > 76.9 µM; under `COc1cccc(C(=O)Nc2ccc(C(=O)O)cc2)c1`, inactive: > 76.9 µM; under `CCOC(=O)COn1c2c(c3c4no[n+]([O-])c4ccc31)CCCC2`, inactive: > 76.9 µM. With `COc1cc(C(=O)Nc2c(-c3ccccn3)c(=O)c3ccccc3n2C)cc(OC)c1OC`, the Potency was inactive: > 76.9 µM.

On to `Cc1ccc(S(=O)(=O)N2CCCC(C(=O)NCc3cccnc3)C2)cc1Cl` (stereo unspecified), for which the Potency is inactive: > 76.9 µM. As for `O=C(CSc1nnc(-c2ccccc2)o1)N1CCc2ccccc2C1`, the Potency is inactive: > 76.9 µM. As to `O=C1CSC(c2ccncc2)N1Cc1ccco1` (stereo unspecified), the Potency was inactive: > 76.9 µM.

Turning to `O=C(c1ccccc1)N1CCN(C2CC3CCC2C3)CC1` (stereo unspecified), the Potency is inactive: > 76.9 µM. For the compound `CCOC(=O)N1CCC(NC(=O)c2cc(C(=O)NCc3cccc(Cl)c3)ccc2CO)CC1`, the Potency is inactive: > 76.9 µM. Turning to `CCc1cc(C(=O)OC)c(NC(=O)c2cc(Br)cs2)s1`, the Potency was inactive: > 76.9 µM. Turning to `CS(=O)(=O)N(CC(=O)N1CCN(c2cccc(Cl)c2)CC1)C1CCCCC1`, the Potency is inactive: > 76.9 µM. For the compound `CN(C(=O)NC(=O)C1=C(N2CCOCC2)/C(=C/c2ccccc2)CC1)S(C)(=O)=O`, the Potency is inactive: > 76.9 µM. Turning to `CCCCOCCCn1cnc2c([nH]c3cc(OC)ccc32)c1=O`, the Potency was inactive: > 76.9 µM.

With `CCc1c(C)nc2c(C#N)c(C)[nH]n2c1=O`, the Potency was inactive: > 76.9 µM. Turning to `CCCCN(C)CCCNC(=O)C1CC(=O)N(Cc2ccc(OC)cc2)C1` (stereo unspecified), the Potency is inactive: > 76.9 µM. Regarding `COC(=O)c1cccc(S(=O)(=O)N2CCC(C)CC2)c1`, the Potency is inactive: > 76.9 µM.

Turning to `COc1ccc(S(=O)(=O)N2CCCC2)c(C)c1C`, the Potency was inactive: > 76.9 µM. As for `Nc1nonc1-c1noc(CCCN2C(=O)c3ccccc3C2=O)n1`, the Potency was inactive: > 76.9 µM. Under `CCc1nnc(NS(=O)(=O)c2ccc(NC(=O)OC)cc2)s1` stands inactive: > 76.9 µM. Under `CCCN1Cc2cccc(C(=O)NCc3ccc4c(c3)OCO4)c2C1=O` stands inactive: > 76.9 µM. For the compound `COc1ccc(CC(=O)Nc2c3c(nn2-c2cccc(Cl)c2)CS(=O)C3)cc1` (stereo unspecified), the Potency was inactive: > 76.9 µM. As for `CC(=O)Nc1cccc(OCC(O)Cn2cnc3ccccc32)c1` (stereo unspecified), the figure is inactive: > 76.9 µM. As for `CCOC(=O)c1nnn(CC(=O)Nc2cccc(OC)c2)c1C(=O)OCC`, the figure is inactive: > 76.9 µM; as for `Cc1cc2c(c(N)n1)c(=O)oc1ccccc12`, inactive: > 76.9 µM. For `Cc1cc2cc(CN(Cc3ccco3)C(=O)C3CCCCC3)c(=O)[nH]c2cc1C`, the Potency is inactive: > 76.9 µM. On to `O=C1CCCN1CCC1CCN(C2CC(=O)N(c3ccc(F)cc3)C2=O)CC1` (stereo unspecified), for which the Potency was inactive: > 76.9 µM.

Consider `CNC(=O)CN(c1cccc2ccccc12)S(C)(=O)=O`, for which the Potency was inactive: > 76.9 µM.

Consider `CN(C)CCN1C(=O)C(O)=C(C(=O)c2ccco2)C1c1ccccc1F` (stereo unspecified), for which the Potency is inactive: > 76.9 µM. Under `COc1ccccc1N1CCN(S(=O)(=O)c2cccc3nsnc23)CC1` stands inactive: > 76.9 µM. In the case of `Cc1cc(Br)ccc1NC(=O)CCN1C(=O)c2ccncc2C1=O`, the Potency was inactive: > 76.9 µM.

For `CSc1nnc2c3c4c(sc3c(=O)n(-c3ccccc3)n12)CC(C)(C)OC4`, the Potency was inactive: > 76.9 µM.

As for `O=C(CCNC(=O)Cn1ccc2ccccc2c1=O)NCCN1CCN(c2ccccc2F)CC1`, the Potency is inactive: > 76.9 µM.

Regarding `COc1ccc(C(=O)Nn2cnc3scc(-c4cccs4)c3c2=O)c(O)c1`, the Potency was inactive: > 76.9 µM. Turning to `COc1ccc(C2C(C(=O)N3CCCC3)c3cc(OC)c(OC)cc3C(=O)N2C)cc1` (stereo unspecified), the Potency was inactive: > 76.9 µM. As for `CC(Nc1cc(=O)n(C)c(=O)n1C)c1ccccc1` (stereo unspecified), the figure is inactive: > 76.9 µM; as for `Cc1c(C(=O)NC(C)CN2CCCCC2)oc2ccccc12` (stereo unspecified), inactive: > 76.9 µM; as for `Cc1cc(C)nc(SCNC(=O)c2ccc(F)cc2)n1`, inactive: > 76.9 µM. Under `COc1cc(NS(=O)(=O)c2ccccc2)ccc1-n1nc(C)cc1C` stands inactive: > 76.9 µM; under `COCCN1CC(=O)N(c2cccc(C)c2C)C(c2ccc(Cl)cc2)C1=O` (stereo unspecified), inactive: > 76.9 µM; under `Cc1ccc(SC(C)c2nc(-c3ccccc3)no2)cc1` (stereo unspecified), inactive: > 76.9 µM. Under `CCOC(=O)C1=C(C)NC(=O)NC1c1ccc(OC)c(CN2CCOCC2)c1` (stereo unspecified) stands inactive: > 76.9 µM.

For the compound `COc1cccc2cc(-c3nnc(SCC(=O)Nc4nc(C)cs4)n3C)oc12`, the Potency is inactive: > 76.9 µM. Turning to `CCCC(=O)Nc1ccc2c(c1)nc1n2CCOC1`, the Potency is inactive: > 76.9 µM. Under `CCOC(=O)COc1ccc(S(=O)(=O)N2CCN(C(=O)OCC)CC2)cc1` stands inactive: > 76.9 µM; under `COc1cccc2c(=O)c3c(cnn3C)n(C)c12`, inactive: > 76.9 µM; under `CCn1c(=O)cc(OCC(=O)Nc2cc(C)ccn2)c2ccccc21`, inactive: > 76.9 µM. For `Cc1cccc(C)c1OCCCCc1c(C)n[nH]c1C`, the Potency is inactive: > 76.9 µM. Under `Cc1cc(=O)n2[nH]c(-c3ccccc3)cc2n1` stands inactive: > 76.9 µM; under `O=C(NCC1CCCO1)c1c(O)c2ccccc2[nH]c1=O` (stereo unspecified), inactive: > 76.9 µM; under `Cn1c(=O)c2[nH]c(CNCc3ccccc3Cl)nc2n(C)c1=O`, inactive: > 76.9 µM. `CCCc1n[nH]c(=O)[nH]1`: the Potency is inactive: > 76.9 µM. `CC1CCCN(C(=O)Nc2cccc(NC(=O)N3CCCC(C)C3C)c2)C1C` (stereo unspecified): the Potency is inactive: > 76.9 µM. Consider `O=C(Nc1ccccc1)c1cccc(-c2nnc(-c3ccccc3)o2)c1`, for which the Potency was inactive: > 76.9 µM. On to `CC(=O)N1CCN2C(=O)C1CCCC(=O)c1cc(C3CCCCC3)ccc12` (stereo unspecified), for which the Potency is inactive: > 76.9 µM.

Consider `CCn1c(SCC(=O)c2cc(OC)ccc2OC)nnc1C(C)C`, for which the Potency was inactive: > 76.9 µM.

On to `CN1CCN(C(=O)CC23CC4CC(CC(C4)C2)C3)CC1`, for which the Potency is inactive: > 76.9 µM. With `OCc1nc(CO)n(Cc2ccccc2)n1`, the Potency was inactive: > 76.9 µM. Regarding `O=C(O)Cc1ccc2[nH]c3ccc(CC(=O)O)cc3c2c1`, the Potency is inactive: > 76.9 µM. As for `O=c1c2[nH]c3cccc(Cl)c3c2ncn1Cc1ccncc1`, the figure is inactive: > 76.9 µM; as for `Cc1cc(C)n2nc(SCC(=O)N(C)Cc3ccccc3)nc2n1`, inactive: > 76.9 µM.

Turning to `O=C(CCCC(=O)N1CCN(c2ccccc2F)CC1)N1CCN(c2ccccc2F)CC1`, the Potency is inactive: > 76.9 µM. For the compound `Cn1c(NCc2ccco2)nc2c1c(=O)n(Cc1ccc(Cl)cc1Cl)c(=O)n2C`, the Potency was inactive: > 76.9 µM. In the case of `CC(C)(C)n1nnnc1C(c1ccncc1)N1CCCCCC1` (stereo unspecified), the Potency is inactive: > 76.9 µM.

On to `O=C1c2cccnc2C(Nc2ccc(S(=O)(=O)N3CCCCC3)cc2)N1Cc1ccccc1` (stereo unspecified), for which the Potency is inactive: > 76.9 µM.

In the case of `COc1ccccc1NC(=O)CN1CCN(C2c3ccccc3-c3ccccc32)CC1`, the Potency was inactive: > 76.9 µM. As for `COC(=O)C1=CN(CC2CCCO2)C=C(C(=O)OC)C1c1cc(OC)c(OC)c(OC)c1` (stereo unspecified), the figure is inactive: > 76.9 µM; as for `O=C(NCc1ccc(F)cc1)C1CCN(S(=O)(=O)N2CCCCC2)CC1`, inactive: > 76.9 µM; as for `CCOC(=O)C1CCCN(C(=O)c2cn(CC)c3ccc(S(=O)(=O)N4CCCC4)cc3c2=O)C1` (stereo unspecified), inactive: > 76.9 µM. Under `CCOc1ccccc1NC(=O)Cn1c(=O)n(CCC(=O)NC2CCCC2)c(=O)c2ccccc21` stands inactive: > 76.9 µM; under `Cc1ccc(-c2cc(-c3ccc(F)cc3)nc(N)c2C#N)o1`, inactive: > 76.9 µM; under `O=C(CNC(=O)c1ccc(Cl)cc1Cl)NCC(=O)Nc1ccccc1N1CCOCC1`, inactive: > 76.9 µM. As to `COc1ccc(CC(=O)OCC(=O)Nc2ncc(Cl)cc2Cl)cc1`, the Potency was inactive: > 76.9 µM. Regarding `O=C(OCC(=O)N1CCOCC1)C(c1ccccc1)c1ccccc1`, the Potency is inactive: > 76.9 µM. Turning to `CCS(=O)(=O)N1CCCC(C(=O)NC2CCCCC2)C1` (stereo unspecified), the Potency is inactive: > 76.9 µM.

In the case of `CCOC(=O)CN(C(=O)CSc1nnc(-c2ccc(OC)c(OC)c2)o1)c1ccccc1`, the Potency was inactive: > 76.9 µM.
